Measured values reported in PubChem BioAssay AID488969 (Vanderbilt High Throughput Screening Facility, 2010).
The full ranking holds about 110,000 compounds; the median of “z-score” is about -0.1, and the highest 2% start at about 2. Some of the results follow. Calls of active or inactive are those of the source.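 The calls were made as follows: active = z-score in the third read window above 3 or below -3; inactive = the rest.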

What follows are compounds tested against Metabotropic glutamate receptor 8 (Rattus norvegicus) (UniProt P70579) (assay: rat mGluR8 modulators via GIRK flux, primary screen, cell-based, thallium flux, HTS (AID 488969)). Conditions: HEK293 rat mGluR8, GIRK (G protein-gated inwardly rectifying potassium channel) thallium flux, FluoZin2; at 10 µM; stronger effect = higher value; submaximal glutamate (EC20) added with thallium.
Chain of UniProt P70579 (P70579 whole entry, looked up): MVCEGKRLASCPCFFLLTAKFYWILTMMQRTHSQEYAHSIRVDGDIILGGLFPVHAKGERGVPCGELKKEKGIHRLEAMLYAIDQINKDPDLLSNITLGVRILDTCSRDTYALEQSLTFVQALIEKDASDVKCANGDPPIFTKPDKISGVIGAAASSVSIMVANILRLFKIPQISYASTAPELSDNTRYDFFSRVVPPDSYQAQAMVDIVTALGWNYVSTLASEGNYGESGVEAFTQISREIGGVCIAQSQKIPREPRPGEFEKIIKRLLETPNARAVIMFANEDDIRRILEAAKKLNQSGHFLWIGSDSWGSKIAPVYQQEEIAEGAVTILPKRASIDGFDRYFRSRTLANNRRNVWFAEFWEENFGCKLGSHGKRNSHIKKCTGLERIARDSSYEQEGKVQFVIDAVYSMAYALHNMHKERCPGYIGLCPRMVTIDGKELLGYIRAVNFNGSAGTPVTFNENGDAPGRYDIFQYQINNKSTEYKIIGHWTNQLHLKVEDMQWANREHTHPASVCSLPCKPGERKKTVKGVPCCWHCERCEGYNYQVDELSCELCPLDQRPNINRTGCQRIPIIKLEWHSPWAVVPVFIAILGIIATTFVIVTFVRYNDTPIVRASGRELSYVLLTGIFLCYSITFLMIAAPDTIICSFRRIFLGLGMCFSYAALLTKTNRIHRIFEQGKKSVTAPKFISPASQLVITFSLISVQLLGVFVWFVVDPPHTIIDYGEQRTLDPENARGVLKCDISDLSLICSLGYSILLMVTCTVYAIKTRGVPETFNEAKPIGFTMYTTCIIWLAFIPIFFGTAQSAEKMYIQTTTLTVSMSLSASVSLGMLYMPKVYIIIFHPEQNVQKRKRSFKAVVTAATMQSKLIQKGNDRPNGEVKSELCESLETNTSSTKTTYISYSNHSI

Compound | z-score
CC(=O)Oc1ccc(NC(=O)CSc2ccccc2)cc1 | 0.0117
CCOc1ccccc1NS(=O)(=O)c1cccs1 | 0.00014
COc1ccc(NC(=O)c2ccc3ccccc3c2)cc1NS(=O)(=O)c1ccc(F)cc1 | -0.319
CN(C)c1oc(-c2ccccc2Cl)nc1C#N | -0.276
O=C(Cn1cnc2ccccc21)NC(c1ccccc1)c1ccccc1 | -0.196
COc1ccc(OC)c(CNC(=O)CCNC(=O)Cn2ccc3ccccc3c2=O)c1 | 0.226
CC1CCN(c2nnc(NC(=O)Cn3c(=O)oc4ccccc43)s2)CC1 | -0.363
COc1cccc(C(=O)NC2CC3CCCC(C2)N3CC(=O)Nc2ccccc2)c1 (stereo not given) | -0.453
Cc1ccc(CN(c2ccc(C(=O)Nc3ccc4c(c3)OCO4)cc2)S(C)(=O)=O)cc1 | 0.0406
Cn1cc(Cl)c(C(=O)N/N=C/c2ccc(OS(=O)(=O)c3ccccc3)cc2)n1 | -1.67
COc1cccc(-n2cnnn2)c1 | -0.275
COc1ccccc1NC(=S)NCCc1ccc(Cl)cc1 | active: 3.06
Cc1nn(CCOc2ccccc2)c(=O)n1-c1c(F)cccc1F | -0.00666
COc1ccc(NS(=O)(=O)c2ccc(-n3nnc4ccccc43)c([N+](=O)[O-])c2)cc1 | -0.0539
CCCCN(c1ccccc1)S(=O)(=O)c1ccc2c(c1)CCN2C(=O)CCC(=O)O | -0.65
C=C(C)CSc1cc(C)c(C#N)c2nc3ccccc3n12 | -0.665
Cc1cc2oc(=O)cc(C)c2c(=O)o1 | 0.681
CCN(CC(=O)NC(c1ccccc1)c1ccccc1)Cc1nc2ccccc2c(=O)[nH]1 | -0.654
CCOc1ccccc1C(=O)NCCCn1ccnc1 | 0.199
CC(=O)Nc1ccc(S(=O)(=O)N2CCN(c3ccc([N+](=O)[O-])c(NCCN4CCOCC4)c3)CC2)cc1 | -0.0274
CCOc1ccc(C(=O)N[C@H](C(=O)Nc2cccc(S(=O)(=O)N3CCCCC3)c2)C(C)C)cc1 | -0.0313
Cc1cccc(C(C)C)c1NC(=O)c1ccc(CN(c2ccccc2)S(=O)(=O)c2ccccc2)cc1 | -0.0858
Cc1ccc(NC(=O)C(c2ccc(Cl)cc2)N2CCCCC2)cc1 (stereo not given) | -0.13
Cc1oc2cc(O)cc(O)c2c(=O)c1-c1ccc2c(c1)OCCCO2 | 0.257

Compound | z-score
CCOc1ccc(N(CC(=O)NCc2ccc(OC)cc2)S(=O)(=O)c2c(C)noc2C)cc1 | -0.0221
C#CCOc1ccc(Br)cc1/C=N/O | -0.165
COc1ccc(-c2cc(=O)[nH][nH]2)cc1 | 0.0391
O=C1c2ccccc2-c2ccc(C(=O)N3CCOCC3)cc21 | -0.391
COc1ccc(Cc2nc(C(=O)NCc3ccccc3OC)cs2)cc1 | -0.237
COc1ccc(F)cc1CN1CCN(C(=O)CCC(=O)Nc2nnc(C(C)C)s2)CC1 | -0.059
CC(OC(=O)CN1C(=O)C2CCCCC2C1=O)C(=O)Nc1ncc(Cl)cc1Cl (stereo not given) | 0.031
O=C(COC(=O)CNC(=O)c1sc2ccccc2c1Cl)Nc1c(Cl)cc(Cl)cc1Cl | 0.172
COc1ccc(Cl)cc1NC(=O)C1CCCN(S(=O)(=O)c2cccc3nonc23)C1 (stereo not given) | 0.0493
COc1ccc(-c2cc(-c3ccccc3O)[nH]n2)cc1 | -0.217
O=C(/C=C/c1ccccc1)Nn1cnnc1 | -0.201
C=CCOC(=O)C1CC=CCC1C(=O)Oc1ccc(F)cc1F (stereo not given) | -0.407
COc1ccc(C(=O)Nc2scc(-c3ccc(Cl)cc3Cl)c2C(N)=O)cc1 | -0.0402
CCOc1ccc(NC(=O)COc2ccc(C(=O)NC3CCCc4ccccc43)cc2OC)cc1 (stereo not given) | -0.402
Cc1cc(NCc2ccccn2)nc2ccccc12 | -0.385
Cc1ccc(CN2CC(C(=O)Nc3cc(S(C)(=O)=O)ccc3Cl)CC2=O)cc1 (stereo not given) | -0.258
COc1ccc(Nc2sc(C(=O)Nc3cccc(Cl)c3)c(N)c2C(=O)Nc2ccccc2OC)cc1 | 0.0963
COc1ccc(NC(=O)CN2CCCC(C)C2)c([N+](=O)[O-])c1 (stereo not given) | -0.424
NS(=O)(=O)c1ccc(Nc2nc(-c3ccc4ccccc4c3)cs2)cc1 | 0.483
CC12CC(NC(=O)N1CCc1ccccc1)c1cc(Cl)ccc1O2 (stereo not given) | 0.322
Cc1nc2ccc(S(=O)(=O)NC(C(=O)N3CCCCCC3)C(C)C)cc2s1 (stereo not given) | -0.161
N/C(=N\OS(=O)(=O)c1ccc(Br)cc1)c1ccncc1 | -0.306
OCCCCNCc1ccc(OCc2ccccc2Cl)cc1 | 2.17
CCOC(=O)C1=C(C)N(C)C(=S)NC1c1ccc(Cl)cc1Cl (stereo not given) | -0.073

Compound | z-score
Cn1cc(C(=O)C(F)(F)F)c2ccccc21 | -0.565
COc1ccc(/C=N/NS(C)(=O)=O)c(OC)c1 | -0.0153
CCN1CN(Cc2ccccc2)CNC1=S | -0.0751
Cc1ccc(CSc2nc3c(cc2C#N)CCC3)cc1 | -0.139
O=C(Nc1ccc(N=Nc2ccccc2)cc1)c1ccccc1Cl | 0.995
N/C(=N\NC(=O)c1cccs1)c1cc2ccccc2oc1=O | -0.117
Cc1ccc(S(=O)(=O)c2nc(S(C)(=O)=O)sc2NCc2ccc3c(c2)OCO3)cc1 | -0.437
COc1ccccc1CNC(=O)C1COc2ccccc2O1 (stereo not given) | 0.216
Cc1nn(CCOc2ccccc2)c(=O)n1-c1ccccc1 | 0.421
O=C(c1ccccc1)N1N=C(c2ccccc2)CC1c1ccc2nccnc2c1 (stereo not given) | -0.422
COc1ccc(-c2nnc(SCCC(=O)O)n2C)cc1OC | 0.0273
NC(=O)c1ccc(N2CCCCC2)c(N2C(=O)CCC2=O)c1 | -1.02
COc1ccccc1C(=O)Nc1ccc(S(=O)(=O)N2CCOCC2)cc1 | -0.0855
CCOc1ccc(Br)cc1/C(C)=N\NC1=NCCN1 | active: 3.75
CCCNC(=O)Cn1cnc2sc(C(=O)N3CCCC(C(=O)OCC)C3)c(C)c2c1=O (stereo not given) | -1.05
CC(=O)c1cccc(NC(=O)c2ccc(N(Cc3ccccc3)S(C)(=O)=O)cc2)c1 | -0.207
Cc1ccc(C)c(S(=O)(=O)N2CCN(CC(=O)Nc3sccc3C#N)CC2)c1 | -0.11
COc1ccc(C(CC(=O)c2ccccc2)C2CCCCC2=O)cc1 (stereo not given) | 0.759
O=C(Nc1ccc(OCc2ccccc2)cc1)c1cccnc1 | 0.141
COc1ccc(N(C(=O)c2ccc(C)cc2)S(=O)(=O)c2cccs2)cc1 | -0.0765
COc1ccc2c3c(c(=O)oc2c1OCC(=O)C(C)(C)C)CCCC3 | -0.189
CCCOc1ccc(C2NC(=S)NC(c3ccccc3)=C2C(=O)Nc2ccc(C)cc2)cc1OC (stereo not given) | -0.936
